# Experimental data from PubChem BioAssay AID624173 (National Center for Advancing Translational Sciences (NCATS), 2012).
# The whole screen tested about 410,000 compounds, of which about 490 (0.12%) were called active. This list was built around the results that the source calls inconclusive (neither active nor inactive); the mix of calls is not that of the screen. Calls come from the whole dose curve; as a rule, active = well fitted inhibition curve with a large enough effect; inconclusive = small, poorly fitted or top-dose-only effect; inactive = flat fitted curve, though single readings scatter. Where the call is inconclusive, the potency comes from a doubtful curve fit.
# Molecular target: pyruvate kinase (Trypanosoma brucei) (UniProt Q57TT1)
# Assay: qHTS of Trypanosoma Brucei Inhibitors; note: nearly all actives have a fitted effect of over 50% in size
# Details: TbPYK enzyme, Kinase-Glo Plus ATP luminescence, 45 min; series mostly up to 76.8 µM; activity, negative = inhibition: at the top concentration
# In short: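 Readout: single end-point luminescence (Kinase-Glo Plus, 10 min). Reaction conditions were TbPYK/substrate plus 130 uM ADP, 45 min at RT, pH 7.2 TEA buffer. No-enzyme wells served as controls, and data were normalized before concentration-response fitting.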
# % is set by controls: 0 for no effect and ±100 for the full control effect; potency is the fitted concentration of half-maximal effect; tags give direction and shape of the fitted curve.
Structure (SMILES),"activity, negative = inhibition",Potency
COC(=O)c1ccc(NC(=O)COc2ccc(S(=O)(=O)NC(C)(C)C)cc2)cc1,inactive: 1.9%,
COc1ccccc1CN1CCC2(CC1)CCN(S(=O)(=O)c1ccccc1)CC2,inactive: -7.71%,
Cc1nc(SCC(=O)Nc2nc3ccccc3s2)c(C#N)c(C)c1C,,"inconclusive: 31.6 µM [inhibitor, partial curve, poor fit]"
COc1ccc(CC2=CC(=O)c3ccccc3C2=O)cc1,,"inconclusive: 11.2 µM [inhibitor, partial curve]"
COc1cc(OC)c(C2CC(=O)N3CN(C)CSC3=C2C#N)cc1OC (stereo not given),,"inconclusive: 15.8 µM [inhibitor, partial curve, poor fit]"
CCN(CC)c1ccc(C2C(C(=O)OCCOC(C)C)=C(C)NC3=C2C(=O)CCC3)cc1 (stereo not given),,"inconclusive: 35.5 µM [inhibitor, partial curve]"
CC(C)OCCCNC(=S)Nc1ccc(S(N)(=O)=O)cc1,,"inconclusive: 22.4 µM [inhibitor, partial curve, poor fit]"
COc1ccc2c(c1)sc1nc(-c3ccccc3)cn12,,"inconclusive: 17.8 µM [inhibitor, partial curve, poor fit]"
CC(C)c1ccc(NC(=O)c2cnc3sc(N4CCOCC4)nn3c2=O)cc1,inactive: 1.75%,
N#CC1=C(Nc2ccccc2Cl)SC2(CCCC2)NC1=O,,"inconclusive: 44.7 µM [inhibitor, single point]"
COc1cc(C(=O)OCCNC(=O)c2cccnc2)cc(OC)c1OC,inactive: -13.4%,
O=C1C=CC(=O)N1c1ccc2c(c1)C(NC(=O)C(F)(F)F)c1ccccc1-2 (stereo not given),,"inconclusive: 5.01 µM [inhibitor, partial curve, poor fit]"
O=C(/C=C/c1ccc(O)c(O)c1)OC1C(O)CC(OC(=O)/C=C/c2ccc(O)c(O)c2)(C(=O)O)CC1O (stereo not given),,"inconclusive: 31.6 µM [inhibitor, single point]"
C=CCn1c(COc2cccc(C)c2)nnc1SCC(=O)NC(=O)NCc1ccco1,,"inconclusive: 39.8 µM [inhibitor, partial curve, poor fit]"
Cc1ccc(C(=O)CSc2nnc(-c3ccco3)n2Cc2ccccc2)cc1,,"inconclusive: 35.5 µM [inhibitor, partial curve]"
Cc1cccc(NC(=O)[C@H](Cc2c[nH]c3ccccc23)NC(=O)[C@@H]2Cc3ccccc3CN2)c1,inactive: -1.23%,
Nc1nc(Sc2ccc([N+](=O)[O-])c3nonc23)c2[nH]cnc2n1,,"inconclusive: 44.7 µM [inhibitor, single point]"
S=c1nc(C23CC4CC(CC(C4)C2)C3)[nH][nH]1,,"inconclusive: 15.8 µM [inhibitor, partial curve, poor fit]"
COCc1ccc(O)c2ncccc12,,"inconclusive: 5.01 µM [inhibitor, full curve]"
CC(=O)c1cc(C#N)c(Oc2cc(C)cc(C)c2)nc1C,,"inconclusive: 35.5 µM [inhibitor, single point]"
COc1ccc(/C=C/C(=O)NC(=S)Nc2ccccn2)cc1,inactive: -1.48%,
CSc1ccc(Cn2c(C)c(C(=O)NCc3cccc(C(F)(F)F)c3)sc2=O)cc1,inactive: -6.06%,
Cn1c(C(=O)N2CCCCCC2)cc2c(=O)n(C)c3ccccc3c21,inactive: 1.96%,
COc1ccc(/C=c2\sc3nc(-c4ccccc4)c(-c4ccccc4)n3c2=O)cc1OC,,"inconclusive: 22.4 µM [inhibitor, partial curve, poor fit]"

Structure (SMILES),"activity, negative = inhibition",Potency
CCN1C(=O)CC(=O)N(CC)C1=S,,"inconclusive: 31.6 µM [inhibitor, partial curve, poor fit]"
COc1ccc(CCNc2ncnc3cc(OC)c(OC)cc23)cc1OC,inactive: 1.86%,
CC(NC(=O)CN1C(=O)NC2(CCCCCC2)C1=O)c1ccccc1 (stereo not given),,"inconclusive: 35.5 µM [inhibitor, partial curve, poor fit]"
COc1ccc(/C=C/C(=O)NCC(=O)N2CCC(N(C)CCN3CCOCC3)CC2)cc1OC,inactive: 1.7%,
Cc1cccc(C)c1OCc1n[nH]c(=S)n1-c1ccccc1,,"inconclusive: 12.6 µM [inhibitor, partial curve, poor fit]"
Cn1c(=O)n(Cc2ccccc2Cl)c(=O)c2c1[nH]c(=S)n2C,,active: 7.94 µM
CCc1ccc(C(=O)CSc2n[nH]c(C)n2)cc1,,"inconclusive: 50.1 µM [inhibitor, single point]"
S=C(SSC(=S)N1CCCCC1)N1CCCCC1,,"inconclusive: 31.6 µM [inhibitor, partial curve, poor fit]"
O=c1cc(CSc2nnc(Nc3ccccc3)s2)nc2sccn12,inactive: -2.41%,
Cc1ccc(NS(=O)(=O)c2cc(NC(=O)c3ccc4c(c3)NC(=O)CS4)ccc2C)c(C)c1,,"inconclusive: 25.1 µM [inhibitor, partial curve]"
CN(C)C(=S)NCc1ccccc1,,"inconclusive: 44.7 µM [inhibitor, single point]"
Fc1ccc(CCNCc2ccccc2Cl)cc1,inactive: -1.3%,
c1ccc2c(c1)Nc1nccnc1S2,,"inconclusive: 12.6 µM [inhibitor, partial curve]"
Cc1[nH]c(=S)c(C#N)c(-c2ccco2)c1C(=O)N(C)C,,"inconclusive: 15.8 µM [inhibitor, partial curve, poor fit]"
COc1ccccc1NC(=O)Nc1ccc(Cl)c(S(=O)(=O)Nc2ccccc2OC)c1,,"inconclusive: 39.8 µM [inhibitor, single point]"
Clc1ccc(C2=Nn3c(nnc3-c3cccs3)SC2)cc1,inactive: -20.9%,
COc1ccc(Br)cc1C(=O)Nc1ccc(N2CCCC2)cc1,,"inconclusive: 5.62 µM [inhibitor, full curve, poor fit]"
COCC(C)n1c(C)cc(C(=O)CSc2ncccn2)c1C (stereo not given),inactive: -2.72%,
CCOc1ccc(C(=S)N2CCN(C)CC2)cc1,,"inconclusive: 12.6 µM [inhibitor, partial curve, poor fit]"
S=C(NCc1ccco1)NCc1ccco1,,"inconclusive: 28.2 µM [inhibitor, partial curve]"
O=C1NC(=O)N(c2ccc(Br)cc2)C(=O)/C1=C/c1ccsc1,,"inconclusive: 31.6 µM [inhibitor, partial curve]"
CCOC(=O)N1CCN(C(=O)c2cccc(N3C(=O)NC4CC3(C)Oc3ccc(Cl)cc34)c2)CC1 (stereo not given),inactive: 0.0379%,
CCOc1ccc(N2C(=O)/C(=C\c3cccs3)C(=O)NC2=S)cc1,,"inconclusive: 22.4 µM [inhibitor, partial curve]"
Cc1cc(/C(N)=N/OC(=O)c2ccccc2Cl)no1,,"inconclusive: 7.08 µM [inhibitor, partial curve, poor fit]"

Structure (SMILES),"activity, negative = inhibition",Potency
CCOc1ccc(CNC(=O)C2CCN(c3nc4ccccc4nc3C(F)(F)F)CC2)cc1OC,inactive: -14.6%,
N#C/C(=C/c1ccc2c(c1)OCO2)C(=O)Nc1ccc(O)cc1,inactive: 2.37%,
CSc1n[nH]c(=S)n1N,,"inconclusive: 35.5 µM [inhibitor, single point]"
O=C(O)c1ccc(-n2cccc2)cc1O,,"inconclusive: 39.8 µM [inhibitor, single point]"
COc1ccc(OC)c(-n2c(=S)[nH]c3c(sc(=S)n3-c3ccccc3)c2=O)c1,,"inconclusive: 11.2 µM [inhibitor, partial curve, poor fit]"
CCOC(=O)c1ccc(NC(=O)N2CC3CCCN3c3ccccc32)cc1 (stereo not given),,"inconclusive: 28.2 µM [inhibitor, partial curve, poor fit]"
CC(C)(C)C1CCc2c(sc(NC(=O)c3noc4c3CCCC4)c2C#N)C1 (stereo not given),,"inconclusive: 20 µM [inhibitor, partial curve, poor fit]"
CC(=O)N1CCc2c(sc3c2c(=O)n(-c2ccccc2Cl)c(=O)n3Cc2cccc(C)c2)C1,inactive: 1.84%,
CCCC(=O)Nc1ccc(-c2csc(N/N=C\c3ccncc3)n2)cc1,,"inconclusive: 17.8 µM [inhibitor, partial curve, poor fit]"
COc1ccccc1N1CCN(C(=O)Cn2ncc3ccsc3c2=O)CC1,inactive: -13.6%,
CN(C)C1(CNC(=O)COc2ccc([N+](=O)[O-])cc2)CCCCC1,inactive: 2.35%,
CCOC(=O)/C(CCC[N+](C)(CC)CC)=N\O,,"inconclusive: 44.7 µM [inhibitor, single point]"
O=C(NCc1n[nH]c(=S)n1-c1cccc(Cl)c1)c1ccc(S(=O)(=O)N2CCCCC2)cc1,,"inconclusive: 15.8 µM [inhibitor, partial curve, poor fit]"
COc1cccc(-n2c(-c3ccccc3)c[nH]c2=S)c1,,"inconclusive: 3.98 µM [inhibitor, full curve]"
Cc1csc(CNC(=O)c2cc(COc3c(C)cccc3C)on2)n1,inactive: 2.68%,
CN(C)CCNC(=O)c1ccc(Sc2ccc(Br)cc2)c([N+](=O)[O-])c1,inactive: -1.58%,
Cc1ccsc1/C=N/n1c(-c2ccccn2)n[nH]c1=S,,"inconclusive: 12.6 µM [inhibitor, partial curve]"
CCCCCCSc1nnc(-c2cnn(-c3ccccc3)c2-n2cccc2)n1C,,"inconclusive: 31.6 µM [inhibitor, partial curve, poor fit]"
COc1ccc2c(c1)nc(CN1CCN(CCO)CC1)n2C,,"inconclusive: 35.5 µM [inhibitor, single point]"
Nc1cc(C(=O)O)ccc1Sc1ccccc1C(=O)O,,"inconclusive: 35.5 µM [inhibitor, single point]"
CCOc1ccc(NC(=O)CN(C)C(=O)/C=C/c2ccco2)cc1OCC,inactive: 1.18%,
C=CCOc1ccc(-c2n[nH]c(=S)o2)cc1,,"inconclusive: 31.6 µM [inhibitor, partial curve]"
